# Tested on: S. aureus strains
# Assay: Stimulation of bacteriophage amplification by fatty acid compounds, all hosts tested
# Settings: fatty acid compound added to growth medium
# Description: For the purposes of this invention, the term “fatty acid” shall refer to all such compounds and related compounds.
smiles,measurement,value
CCCCCCCCCCCC(=O)O [lauric acid],effect on bacteriophage amplification,generally promotes bacteriophage amplification in nearly all hosts tested

# From patent publication US8455186B2, “Method of detection of microorganisms with enhanced bacteriophage amplification” (priority 2007, dated 2013)
